The record followed here is the supplement of paper PMC10369915.

This is one part of the list. Rule as the data show it: active = 3.2 or more and inactive = the rest. The signal is at background level for most entries.
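Also: displayed peptides selected on beads carrying the immobilized SH2 domain, with library peptides lacking any tyrosine serving as negative controls.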

The target of the first experiment is SHP2 C-SH2 domain E139D. As to the kind of experiment: enrichment score (SH2-bound / input frequency) (ratio); bacterial display of known human phosphotyrosine sites (pTyr-Var adds point mutants) read by sequencing; higher = stronger binding; tyrosines were phosphorylated by kinases first. The conditions noted are these: peptide library: pTyr-Var.
As to NTGDDYDLYGG [PTPN11_Y63_Y62D], the enrichment score is inactive: 0.784.
The same measure, in the same setting: the same measure for QNTGDDFDLFG [PTPN11_Y62_Y62D_YF]: inactive: 0.763.
Same read-out and setting: next, NTGGYYDLYGG [PTPN11_Y63_D61G]: inactive: 0.912.
QNTVDYFDLFG [PTPN11_Y62_G60V_YF]: the enrichment score is inactive: 1.08.
Consider NTGYYYDLYGG [PTPN11_Y63_D61Y], for which the enrichment score is inactive: 1.12.
The same measure, in the same setting: next, QTEAPYRFIYM [PTPN11_Y511_Q510P]: inactive: 0.651; NTGDFCDLFGG [PTPN11_Y63_Y63C_YF]: inactive: 0.959.
QNTADYYDLYG [PTPN11_Y62_G60A]: the enrichment score is inactive: 1.03.
The same measure, in the same setting: the same measure for QNAGDYFDLFG [PTPN11_Y62_T59A_YF]: inactive: 0.653.
With NTGDDYDLFGG [PTPN11_Y63_Y62D_YF], the enrichment score was inactive: 0.673.
Still for that read-out and setting: the same measure for QNTADYFDLFG [PTPN11_Y62_G60A_YF]: inactive: 1.03.
The same measure, in the same setting: the same measure for QNTGDDYDLYG [PTPN11_Y62_Y62D]: inactive: 0.544; for QNTGDYFDLFG [PTPN11_Y62_YF]: inactive: 1.05; for NTGNYYDLYGG [PTPN11_Y63_D61N]: inactive: 0.839.
On the same count and under the same terms, next, QNTGVYFDLFG [PTPN11_Y62_D61V_YF]: inactive: 1.6.
Regarding QNTGVYYDLYG [PTPN11_Y62_D61V], the enrichment score was inactive: 1.34.
The same measure, in the same setting: the same measure for KTGDFYDLFGG [PTPN11_Y63_N58K_YF]: inactive: 1.19; for QTEAPYRFIFM [PTPN11_Y511_Q510P_YF]: inactive: 0.473; for QTEAQYRFIFM [PTPN11_Y511_YF]: inactive: 0.557.

A further experiment deals with SHP2 C-SH2 domain wild-type. The description is as above. The conditions noted are these: peptide library: pTyr-Var.
Take NTGDDYDLYGG [PTPN11_Y63_Y62D]: the enrichment score is inactive: 0.609.
As to QNTGDDFDLFG [PTPN11_Y62_Y62D_YF], the enrichment score was inactive: 0.73.
On the same count and under the same terms, next, NTGGYYDLYGG [PTPN11_Y63_D61G]: inactive: 1.13.
Still for that read-out and setting: the same measure for QNTVDYFDLFG [PTPN11_Y62_G60V_YF]: inactive: 0.93.
The same measure, in the same setting: next, NTGYYYDLYGG [PTPN11_Y63_D61Y]: inactive: 1.77; QTEAPYRFIYM [PTPN11_Y511_Q510P]: inactive: 0.604; NTGDFCDLFGG [PTPN11_Y63_Y63C_YF]: inactive: 1.23.
For the molecule QNTADYYDLYG [PTPN11_Y62_G60A], the enrichment score is inactive: 0.895.
Same read-out and setting: next, QNAGDYFDLFG [PTPN11_Y62_T59A_YF]: inactive: 0.688; NTGDDYDLFGG [PTPN11_Y63_Y62D_YF]: inactive: 0.807; QNTADYFDLFG [PTPN11_Y62_G60A_YF]: inactive: 0.934.
Still for that read-out and setting: the same measure for QNTGDDYDLYG [PTPN11_Y62_Y62D]: inactive: 0.624.
The same measure, in the same setting: next, QNTGDYFDLFG [PTPN11_Y62_YF]: inactive: 1.03.
As for NTGNYYDLYGG [PTPN11_Y63_D61N], the enrichment score was inactive: 0.695.
Same read-out and setting: the same measure for QNTGVYFDLFG [PTPN11_Y62_D61V_YF]: inactive: 1.82.
On the same count and under the same terms, the same measure for QNTGVYYDLYG [PTPN11_Y62_D61V]: inactive: 0.968; for KTGDFYDLFGG [PTPN11_Y63_N58K_YF]: inactive: 0.791; for QTEAPYRFIFM [PTPN11_Y511_Q510P_YF]: inactive: 0.621.
The same measure, in the same setting: the same measure for QTEAQYRFIFM [PTPN11_Y511_YF]: inactive: 0.848.

The target of a further experiment is SHP2 N-SH2 domain L43F. Described as above. The conditions noted are these: peptide library: pTyr-Var.
On to NTGDDYDLYGG [PTPN11_Y63_Y62D], for which the enrichment score was inactive: 0.651.
Regarding QNTGDDFDLFG [PTPN11_Y62_Y62D_YF], the enrichment score is inactive: 0.665.
Take NTGGYYDLYGG [PTPN11_Y63_D61G]: the enrichment score is inactive: 0.986.
Still for that read-out and setting: the same measure for QNTVDYFDLFG [PTPN11_Y62_G60V_YF]: inactive: 1.15; for NTGYYYDLYGG [PTPN11_Y63_D61Y]: inactive: 1.18; for QTEAPYRFIYM [PTPN11_Y511_Q510P]: inactive: 0.607.
Still for that read-out and setting: the same measure for NTGDFCDLFGG [PTPN11_Y63_Y63C_YF]: inactive: 1.05.
The same measure, in the same setting: next, QNTADYYDLYG [PTPN11_Y62_G60A]: inactive: 0.696; QNAGDYFDLFG [PTPN11_Y62_T59A_YF]: inactive: 1.21; NTGDDYDLFGG [PTPN11_Y63_Y62D_YF]: inactive: 0.697.
Take QNTADYFDLFG [PTPN11_Y62_G60A_YF]: the enrichment score is inactive: 1.23.
On the same count and under the same terms, next, QNTGDDYDLYG [PTPN11_Y62_Y62D]: inactive: 0.498; QNTGDYFDLFG [PTPN11_Y62_YF]: inactive: 0.998.
Same read-out and setting: next, NTGNYYDLYGG [PTPN11_Y63_D61N]: inactive: 0.635.
Same read-out and setting: next, QNTGVYFDLFG [PTPN11_Y62_D61V_YF]: inactive: 1.92.
QNTGVYYDLYG [PTPN11_Y62_D61V]: the enrichment score was inactive: 0.988.
Same read-out and setting: the same measure for KTGDFYDLFGG [PTPN11_Y63_N58K_YF]: inactive: 0.981; for QTEAPYRFIFM [PTPN11_Y511_Q510P_YF]: inactive: 0.55; for QTEAQYRFIFM [PTPN11_Y511_YF]: inactive: 0.618.

The next experiment addresses SHP2 N-SH2 domain T42A. The description is as above. The conditions noted are these: peptide library: pTyr-Var.
For NTGDDYDLYGG [PTPN11_Y63_Y62D], the enrichment score is inactive: 0.597.
In the case of QNTGDDFDLFG [PTPN11_Y62_Y62D_YF], the enrichment score was inactive: 0.636.
NTGGYYDLYGG [PTPN11_Y63_D61G]: the enrichment score is inactive: 1.1.
The same measure, in the same setting: next, QNTVDYFDLFG [PTPN11_Y62_G60V_YF]: inactive: 0.913.
Still for that read-out and setting: the same measure for NTGYYYDLYGG [PTPN11_Y63_D61Y]: inactive: 1.13.
Still for that read-out and setting: next, QTEAPYRFIYM [PTPN11_Y511_Q510P]: inactive: 0.429; NTGDFCDLFGG [PTPN11_Y63_Y63C_YF]: inactive: 0.863.
Consider QNTADYYDLYG [PTPN11_Y62_G60A], for which the enrichment score is inactive: 0.707.
On the same count and under the same terms, next, QNAGDYFDLFG [PTPN11_Y62_T59A_YF]: inactive: 1.28; NTGDDYDLFGG [PTPN11_Y63_Y62D_YF]: inactive: 0.685; QNTADYFDLFG [PTPN11_Y62_G60A_YF]: inactive: 0.873.
Same read-out and setting: next, QNTGDDYDLYG [PTPN11_Y62_Y62D]: inactive: 0.478; QNTGDYFDLFG [PTPN11_Y62_YF]: inactive: 0.872.
The same measure, in the same setting: next, NTGNYYDLYGG [PTPN11_Y63_D61N]: inactive: 0.62; QNTGVYFDLFG [PTPN11_Y62_D61V_YF]: inactive: 1.37.
On to QNTGVYYDLYG [PTPN11_Y62_D61V], for which the enrichment score is inactive: 1.04.
The same measure, in the same setting: next, KTGDFYDLFGG [PTPN11_Y63_N58K_YF]: inactive: 0.922; QTEAPYRFIFM [PTPN11_Y511_Q510P_YF]: inactive: 0.622; QTEAQYRFIFM [PTPN11_Y511_YF]: inactive: 0.547.

Another experiment deals with SHP2 N-SH2 domain T52S. Described as above. The conditions noted are these: peptide library: pTyr-Var.
For NTGDDYDLYGG [PTPN11_Y63_Y62D], the enrichment score is inactive: 0.716.
On the same count and under the same terms, the same measure for QNTGDDFDLFG [PTPN11_Y62_Y62D_YF]: inactive: 0.523.
Regarding NTGGYYDLYGG [PTPN11_Y63_D61G], the enrichment score was inactive: 1.14.
Same read-out and setting: the same measure for QNTVDYFDLFG [PTPN11_Y62_G60V_YF]: inactive: 1.21; for NTGYYYDLYGG [PTPN11_Y63_D61Y]: inactive: 1.2.
Still for that read-out and setting: next, QTEAPYRFIYM [PTPN11_Y511_Q510P]: inactive: 0.592; NTGDFCDLFGG [PTPN11_Y63_Y63C_YF]: inactive: 1.15.
For QNTADYYDLYG [PTPN11_Y62_G60A], the enrichment score is inactive: 0.785.
Still for that read-out and setting: next, QNAGDYFDLFG [PTPN11_Y62_T59A_YF]: inactive: 0.695; NTGDDYDLFGG [PTPN11_Y63_Y62D_YF]: inactive: 0.958; QNTADYFDLFG [PTPN11_Y62_G60A_YF]: inactive: 1.1.
The same measure, in the same setting: next, QNTGDDYDLYG [PTPN11_Y62_Y62D]: inactive: 0.95; QNTGDYFDLFG [PTPN11_Y62_YF]: inactive: 0.9.
Still for that read-out and setting: the same measure for NTGNYYDLYGG [PTPN11_Y63_D61N]: inactive: 0.73; for QNTGVYFDLFG [PTPN11_Y62_D61V_YF]: inactive: 1.41.
QNTGVYYDLYG [PTPN11_Y62_D61V]: the enrichment score was inactive: 1.07.
Still for that read-out and setting: next, KTGDFYDLFGG [PTPN11_Y63_N58K_YF]: inactive: 1.14; QTEAPYRFIFM [PTPN11_Y511_Q510P_YF]: inactive: 0.856; QTEAQYRFIFM [PTPN11_Y511_YF]: inactive: 0.569.

In the next experiment the target is SHP2 N-SH2 domain wild-type. Described as above. The conditions noted are these: peptide library: pTyr-Var.
Regarding NTGDDYDLYGG [PTPN11_Y63_Y62D], the enrichment score is inactive: 0.822.
Same read-out and setting: the same measure for QNTGDDFDLFG [PTPN11_Y62_Y62D_YF]: inactive: 0.838; for NTGGYYDLYGG [PTPN11_Y63_D61G]: inactive: 1.19; for QNTVDYFDLFG [PTPN11_Y62_G60V_YF]: inactive: 1.05.
On the same count and under the same terms, the same measure for NTGYYYDLYGG [PTPN11_Y63_D61Y]: inactive: 1.05; for QTEAPYRFIYM [PTPN11_Y511_Q510P]: inactive: 0.577.
Still for that read-out and setting: the same measure for NTGDFCDLFGG [PTPN11_Y63_Y63C_YF]: inactive: 1.2.
On to QNTADYYDLYG [PTPN11_Y62_G60A], for which the enrichment score was inactive: 0.809.
On to QNAGDYFDLFG [PTPN11_Y62_T59A_YF], for which the enrichment score was inactive: 1.05.
Same read-out and setting: next, NTGDDYDLFGG [PTPN11_Y63_Y62D_YF]: inactive: 0.743; QNTADYFDLFG [PTPN11_Y62_G60A_YF]: inactive: 1.24; QNTGDDYDLYG [PTPN11_Y62_Y62D]: inactive: 0.5.
For QNTGDYFDLFG [PTPN11_Y62_YF], the enrichment score is inactive: 1.09.
Still for that read-out and setting: the same measure for NTGNYYDLYGG [PTPN11_Y63_D61N]: inactive: 0.864; for QNTGVYFDLFG [PTPN11_Y62_D61V_YF]: inactive: 1.44.
Take QNTGVYYDLYG [PTPN11_Y62_D61V]: the enrichment score is inactive: 0.972.
Still for that read-out and setting: next, KTGDFYDLFGG [PTPN11_Y63_N58K_YF]: inactive: 1.11.
As for QTEAPYRFIFM [PTPN11_Y511_Q510P_YF], the enrichment score is inactive: 0.69.
Same read-out and setting: next, QTEAQYRFIFM [PTPN11_Y511_YF]: inactive: 0.625.
